# Laboratory results taken from the supplement of paper PMC10185492.
# Some of the results follow. Read counts after selection give these values, which scatter widely.
# System: SARS-CoV-2 3CLpro (nsp5)
# Experiment: substrate phage enrichment score (protease-eluted vs HEPES control, +1 offset) (ratio); higher = better cleaved substrate
# Settings: selection round: 3; protease elution time: 0.5 h
# Procedure: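 Random heptapeptide substrate phage display (M13 pIII fusion, heptapeptide between an N-terminal biotinylated AviTag GLNDIFEAQKIEWHE and pIII; phages immobilised on streptavidin) eluted by cleavage with 50 nM protease in 20 mM HEPES at 37 °C. Selected phages were NGS sequenced, and the enrichment score is (reads in protease sample + 1)/(reads in HEPES blank-selection control + 1).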
row,Substance,substrate phage enrichment score
1,DPQRKFL,6.38
2,NASAHHH,2.71
3,HCGDAAA,4.5
4,STGEYRQ,0.222
5,TWNYRPS,> 22
6,TAILQSV,> 32
7,TAGVTLH,30.5
8,TPVSGCQ,> 26
9,LTRLCAE,11
10,GAATLQA,> 26
11,TNAAHHH,1.08
12,AMTCTLQ,> 38
13,KAQLMSN,> 31
14,WTRPKCE,0.0714
15,THNQIMK,3.22
16,GQAAKLQ,> 33
17,LLPLEAR,14.7
18,KCQSLDW,3.78
19,TREIYSE,1.85
20,SESELPD,0.96
21,RLMSSLQ,> 25
22,PKAAHHH,1.07
23,LGQPDLW,14

row,Substance,substrate phage enrichment score
1,PPVAEQH,> 47
2,ASDSVLQ,> 26
3,SIGQTHS,> 31
4,PCAKSQE,0.867
5,SWQVGNS,14.3
6,MHVPNSP,3
7,CATPDCA,> 22
8,VRPQKAP,> 31
9,VKTSWPP,> 53
10,RVAAHHH,1.68
11,VAWPQLQ,> 29
12,SRQLYSP,> 26
13,ASAAHHH,1.5
14,KHCGSNG,10.5
15,KHQLPVR,15.5
16,RRDAIPV,1.38
17,SDALTSK,3.29
18,QQCTNGW,8.75
19,GSATRLQ,> 25
20,SRAFNRE,> 27
21,REGHIRL,1.5
22,RQGTLSP,3.08
23,QYMPVPR,10

row,Substance,substrate phage enrichment score
1,PAAHHHH,1.15
2,NAAVRRP,> 45
3,FTSPPRQ,3.33
4,AERLSCY,2.58
5,IVRPHII,0.96
6,CVRRIEP,> 23
7,QTWPSRL,> 51
8,QKGVKMQ,22.5
9,WYDSKWT,1.75
10,PESPLKN,> 41
11,QQPEYMV,1.22
12,SNTEPRD,5
13,CKNSSQL,11.5
14,LHARPGQ,> 31
15,EASTEYG,0.667
16,AGLSPNR,> 39
17,QCDRPEK,> 21
18,SWSQFYR,10
19,VLPHIII,1.35
20,IYTVTEQ,> 22
21,EDTGNMV,0.0909
22,SKVRMGS,> 26
23,SSRQSVR,> 25

row,Substance,substrate phage enrichment score
1,SKAGREE,13
2,ETSAAAH,2.14
3,CWAAHHH,0.737
4,EPNTPIT,11.5
5,SNALFRN,> 21
6,HEATARD,> 28
7,PNERNSR,> 26
8,LTGSMLQ,> 64
9,TCNVNLQ,> 51
10,RATRARE,0.714
11,SKPSACR,> 22
12,HSRKDCG,1.3
13,FPFRTNH,2.15
14,SQSARTY,> 22
15,KQCVTRN,1.5
16,AVRCELQ,> 116
17,RGHWTTQ,1.76
18,LYRERPD,> 28
19,YWPTKKG,0.333
20,REKPAGS,1.88
21,SCTHRWP,> 35
22,CLAAHHH,1.1
23,RRILRFR,> 39

row,Substance,substrate phage enrichment score
1,SQHQAGP,3
2,STEHGRN,> 21
3,RDTANLQ,> 62
4,PGLSALQ,> 87
5,ARMPLVQ,12
6,CTMFRAL,1.45
7,VRPTQLQ,> 27
8,SASPHPG,> 31
9,GHAAAHH,0.778
10,RPTTVLQ,> 24
11,PRLPSFK,> 48
12,PGGSAAA,0.478
13,STPAHHH,1.46
14,SAAAKHH,1.3
15,QKSYTLK,> 24
16,CVKPYVN,> 42
17,RDRLHRQ,2.2
18,CVLYKKL,0.06
19,SCPGSRS,> 58
20,AFWNEMR,> 35
21,CAQRCVR,8
22,PKHTREH,11.5
23,QSILQGT,82

row,Substance,substrate phage enrichment score
1,KTSATLN,> 21
2,PRNNRLQ,16.5
3,HRGAILQ,> 43
4,SAAAHHP,1.57
5,NAAAHLN,> 21
6,FTTPKGP,9
7,TEAWNEI,2.38
8,ASASGSD,5.07
9,PTLQSNA,> 44
10,QPAAHHH,1.44
11,TPVPKTC,> 22
12,FPGERTH,2.14
13,LRRNAEC,12
14,WGSQPVS,13.5
15,PAQTLTT,> 23
16,SRYKAGI,10.5
17,QVKPNGF,8.4
18,ALTCHPR,2.2
19,RGCQAHP,0.55
20,RAAAQQH,1.6
21,DPIKWTP,10.7
22,DEAAHHH,0.381
23,SGAAHHH,0.774

row,Substance,substrate phage enrichment score
1,WPQTESC,> 45
2,TRGHSSV,0.139
3,TTAAHHH,1.21
4,RRPHIII,1.49
5,NRAAHHH,1.03
6,QRSGRSG,81
7,EPKWPVY,8.33
8,SAAAHQN,1.48
9,QAAHHHH,0.692
10,SHRVILQ,> 99
11,LLQSSKG,4.43
12,HYFQGGS,1.8
13,RYFQGGS,0.803
14,GHHVHAA,2.14
15,VHSTDVI,> 23
16,SERAVVL,> 43
17,TETKAVT,2.75
18,AHHARLQ,> 56
19,SGRAINS,2.43
20,QNTGNLT,12
21,SLWLGQT,> 21
22,GCVLQAA,> 242
23,ASGSTSE,3.8

row,Substance,substrate phage enrichment score
1,SNFQGGS,0.857
2,NVAAHHH,0.83
3,LQRTWPN,> 32
4,TGAGARQ,> 23
5,ESRDRPT,2.22
6,TRDGMSA,2.38
7,EQYFQGG,1.35
8,TTRYQAD,2.57
9,CTPCSNQ,> 65
10,LRPATMQ,> 28
11,HQAAHHH,2.16
12,TSQTGAR,29
13,VGGSAAA,0.929
14,KQVTTPW,2
15,TSECSAR,> 21
16,RQASQYG,2.25
17,DQVSTKK,> 21
18,SPDFRSK,2
19,TDKQESS,6.75
20,DKAAHHH,1.05
21,PSAAHHH,1.09
22,RERCQWA,2.14
23,GRLPCGR,3.88
